Measurements reported in ChEMBL document CHEMBL4888484, “Replenishing the malaria drug discovery pipeline: Screening and hit evaluation of the MMV Hit Generation Library 1 (HGL1) against asexual blood stage Plasmodium falciparum ,using a nano luciferase reporter read-out” (2022).
Screen size: about 150,000 compounds; about 540 (0.36%) showed an effect of 50% or more. The list shows a part of the results.

These compounds were tested on Plasmodium falciparum (assay: Primary screen in NF54 nanoGlo assay, in single point, at 2uM, 72h; a lower Z score goes with more inhibition). Settings: timepoint 72 hour.
Assay type: functional, Erythrocyte

| SMILES | % Inhibition [%] | Z score |
| --- | --- | --- |
| C[C@@H](C(=O)Nc1ccc(Cl)cc1F)N1CCC(NS(=O)(=O)c2cccs2)CC1 | 25 | -2.38 |
| O=C(NCc1ccccc1)c1ccc(N2CCCc3ccccc32)s1 | -5 | 0.55 |
| COc1cncc(C(=O)N2CC(C)(C)[C@@H]2C2CC2)n1 | 5 | -0.55 |
| Cn1ccnc1[C@H](O)c1cc(C(C)(C)C)c(O)c(C(C)(C)C)c1 | -8 | 1.42 |
| CCOC(=O)C(Cc1ccncc1)(NC(C)=O)C(=O)OCC | -7 | 1.12 |
| CNC(=O)COc1c2c(cc3c1C(=O)N(C)CC3)OCO2 | -17 | 2.2 |
| CC(C)Cn1cncc1CN(C)Cc1cnccn1 | -3 | 0.39 |
| O=C(Cc1ccc(Cl)cc1Cl)N(Cc1ccco1)[C@H]1CCS(=O)(=O)C1 | -6 | 0.73 |
| Cc1ccccc1C(=O)NCC(=O)N1CC[C@H](C2CCOCC2)C1 | -10 | 1.08 |
| CC(C)c1nnc2ccc(NS(=O)(=O)c3ccc4c(c3)N(C)CCC4)cn12 | -9 | 1.07 |
| Cc1c(CN2CCC[C@H](N(CCN3CCCC3)C(=O)C3CCC3)C2)cnn1C | -13 | 1.75 |
| NC1CC2CC(C(=O)NCC3(C(F)(F)F)CCCC3)CC12 (stereo unspecified) | -3 | 0.44 |
| O=C(c1cccc(-c2ccn[nH]2)c1)N1CCN(C/C=C/c2ccccc2)CC1 | 6 | -0.79 |
| Cc1cc(NC(=O)NCc2ccc(F)cc2)on1 | 2 | -0.25 |
| COc1ccc2c(c1)-c1onc(C(=O)NCc3cc(F)cc(F)c3)c1CC2 | -14 | 1.53 |
| Cc1ccsc1C(=O)N1CCn2c(nnc2[C@@H]2CCCCN2S(C)(=O)=O)C1 | -1 | 0.12 |
| CCc1nnc(CO[C@H]2CCCc3c[nH]nc32)o1 | -8 | 1.08 |
| Cn1nc(-c2ccccc2)c(CN(Cc2ccccc2)C[C@H](O)COC(C)(C)C)c1Oc1ccccc1 | -5 | 0.94 |
| Cc1oc2ccn(Cc3cccc(F)c3)c(=O)c2c1C(=O)N(C)Cc1ccccc1 | 11 | -1.66 |
| O=C(c1cnccn1)N1CCOc2ccc(N3CCOCC3)cc2C1 | -5 | 0.99 |
| Cn1nncc1NC(=O)[C@@H]1C[C@]1(C)c1ccccc1 | 2 | -0.33 |
| O=C(NCCn1nccn1)c1ccoc1 | -7 | 1.05 |
| CCNc1nc(C)cc(NCCNC(=O)c2ccc(OC)c(OC)c2)n1 | -9 | 1.05 |
| CN1CC[C@H](CN(C)C(=O)c2ccc(-c3ccc4cc[nH]c(=O)c4c3)cc2)C1 | -6 | 0.98 |
| Cn1nncc1CNC(=O)C[C@H]1COc2ccccc2O1 | 4 | -0.72 |
| CN1c2ccc(F)cc2N(CCNC(=O)C(C)(C)Oc2ccc(Cl)cc2)S1(=O)=O | 15 | -1.97 |
| CN(C)[C@@H](CNC(=O)c1ccoc1)c1ccc2c(c1)CCO2 | -12 | 1.79 |

| SMILES | % Inhibition [%] | Z score |
| --- | --- | --- |
| CC(C)c1sc(NC(=O)C2CC(=O)N(C)C2c2cccnc2)nc1-c1ccccc1 (stereo unspecified) | -5 | 0.69 |
| O=C(C[C@H](c1ccc(Cl)c(Cl)c1)c1c[nH]c2ccccc12)NC(c1ccccc1)c1ccccc1 | 5 | -0.69 |
| COc1ccc(CC(=O)N2CCC[C@H]2c2cc(C(C)C)no2)cc1OC | 14 | -1.91 |
| Cc1c(Cl)ccc2c1NC(=O)[C@]21N2CCC[C@H]2[C@@H](C(=O)c2ccc3ccccc3c2)[C@]12C(=O)Nc1ccccc12 | 2 | -0.19 |
| CC(=O)N1CC(OCC(=O)Nc2nc(-c3cccc(-n4cnnn4)c3)cs2)C1 | 1 | -0.18 |
| c1ccc(CN2Cc3ccccc3C[C@H]2c2nnc3n2CCOCC3)cc1 | -4 | 0.57 |
| O=C(COc1ccc2c(c1)OCO2)Nc1nnc(CCCc2ccccc2)s1 | -3 | 0.4 |
| O=C(Nc1ccc(=O)n(Cc2ccc(Cl)c(Cl)c2)c1)c1cc(O)nc2ccccc12 | 2 | -0.24 |
| CCc1nccn1CCC(=O)NCCn1cnc(C)c1C | 1 | -0.06 |
| O=C(c1ccc(C(F)(F)F)[nH]1)N(CCO)C1CC1 | -2 | 0.39 |
| C[C@H]1CCCN(c2nc(-c3ccccn3)nc3ccccc23)C1 | 96 | -9.05 |
| CN(Cc1cc(Br)cn1C)c1ccc(C#N)nc1 | -8 | 0.88 |
| Nc1nnc(CNC(=O)C[C@@H]2C=CCC2)s1 | 1 | -0.18 |
| COc1cc(C)c(C(C)NC(=O)N2C[C@H](OC)[C@H](OC)C2)cc1OC (stereo partly specified) | 10 | -1.24 |
| CN(C)c1nccc(CNC(=O)c2cccc(-n3cncn3)c2)n1 | 12 | -1.4 |
| CC(=O)c1ccc(N2CCCN(CC(C)C)CC2)nc1 | -18 | 1.65 |
| Cc1nc(C)c(CNC(=O)Nc2cccs2)s1 | 2 | -0.32 |
| Cn1nc(C(C)(C)C)c2c1NC(=O)C[C@@H]2c1ccccc1Cn1cccn1 | 0 | -0.03 |
| CCN(Cc1ccc2c(c1)CCO2)[C@H]1CCNC1=O | 5 | -0.89 |
| CC(C)(Cc1cccc(Cl)c1)C(=O)NCCS(C)(=O)=O | -2 | 0.24 |
| Cc1nc(N2CCC(O)(Cn3ccnn3)CC2)c(Cl)cc1C#N | -2 | 0.22 |
| O=C(NCc1ccncc1)[C@]1(F)CCCN(S(=O)(=O)c2ccc3c(c2)CCC3)C1 | -20 | 1.76 |
| Cn1cc(C2C[S+]([O-])CCN2Cc2csc3ccccc23)cn1 (stereo unspecified) | -1 | 0.27 |
| O=C([C@H]1CCCO1)N1CCN(c2ccc3cn[nH]c3c2)C(=O)C1 | -4 | 0.7 |
| CCc1noc(CN(CC)Cc2noc(C3CCCC3)n2)n1 | -17 | 1.6 |
| Cc1cnc2c(c1)N(C(=O)c1cccc(N3CCCC3=O)c1)CCO2 | 0 | -0.01 |
